Measurements published in ChEMBL document CHEMBL5303300, “EUbOPEN Chemogenomics Library - Multiplex” (2023).

Experiments:
[1] = tested on: U2OS; test: Multiplex assay against U2OS; assay type: toxicity, cell-based; settings: human, number of replicates 2
How it was run: (§1)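 Compound was added to live cells that had been stained at seeding with Hoechst33342, BioTracker Green Microtubule Cytoskeleton Dye, MitoTracker Red and Annexin V Alexa Fluor 680, and imaging followed on a CQ1 microscope at 37°C and 5% CO2. CellPathfinder machine-learning gating divided cells into Hoechst high-intensity objects or normal cells, normal cells into healthy, pyknosed or fragmented nuclei, and pyknosed cells into mitotic or apoptotic. Tubulin, mitochondrial-mass and membrane-permeability phenotypes are per cents of healthy-nucleus cells.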

[2] = tested on: Fibroblast; test: Multiplex assay against human fibroblast; assay type: toxicity, cell-based; settings: 10 µM, compound concentration 10 uM, number of replicates 2; how it was run: as §1
[3] = 12 h, 1 µM, compound concentration 1 uM
[4] = 12 h, 10 µM, compound concentration 10 uM
[5] = 24 h, 1 µM, compound concentration 1 uM
[6] = 24 h, 10 µM, compound concentration 10 uM
[7] = 48 h, 1 µM, compound concentration 1 uM
[8] = 48 h, 10 µM, compound concentration 10 uM

SMILES | Total Cell Count [1, 3] | Population Fragmented Nuclei (%) [1, 4] | Population Mitotic Cells (%) [1, 4] | Total Cell Count [1, 4] | Population Mitotic Cells (%) [1, 5] | Total Cell Count [1, 5] | Total Cell Count [1, 6] | Total Cell Count [1, 7] | Total Cell Count [1, 8] | Population Mitotic Cells (%) [1, 8] | other results
CC(C)NC(=O)[C@H]1CCC[C@H]1Nc1nc(Nc2ccc(C(=O)N(C)C3CCN(C)CC3)cc2)ncc1Cl | 40 and 164 | 26% and 6% | 0% and 30% | 23 and 180 | 57% and 12% | 34 and 187 | 30 and 185 | 178 and 43 | 26 and 165 | – | Population Fragmented Nuclei (%) [1, 6]: 43% and 5%; Population Fragmented Nuclei (%) [1, 8]: 53% and 3%; Population Healthy Nuclei (%) [1, 8]: 7% and 45%; Population Mitochondria Different-Phenotype (%) [1, 8]: 0% and 29%
CS(=O)(=O)c1ccc(C(=O)Nc2cc(F)c(F)c(COc3cc(F)c(Br)cc3CN3CC[C@H](O)C3)c2)c(Cl)c1.O=CO | 48 and 202 | – | – | 137 and 38 | – | 62 and 281 | 37 and 149 | 88 and 464 | 145 and 31 | – | –
CS(=O)(=O)c1ccc(C(=O)Nc2ccc(F)c(COc3ccc(Br)cc3CNCCO)c2)c(Cl)c1.O=CO | 40 and 263 | – | – | 37 and 194 | – | 51 and 321 | 51 and 233 | 77 and 599 | 53 and 321 | – | –
CN[C@@H](C)C(=O)N[C@H](C(=O)N1CCC[C@H]1C(=O)N[C@H](C(=O)NCCCCCCNC(=O)[C@@H](NC(=O)[C@@H]1CCCN1C(=O)[C@@H](NC(=O)[C@H](C)NC)C1CCCCC1)C(c1ccccc1)c1ccccc1)C(c1ccccc1)c1ccccc1)C1CCCCC1 (I: H-[NMeA][Chg]P[Dip] / II: H-[NMeA][Chg]P[Dip]; linker I:C-II:C via Hexamethylenediamine) | – | 6% and 21% | – | 196 and 55 | – | – | 62 and 257 | 92 and 363 | 414 and 90 | 5% and 23% | Population Fragmented Nuclei (%) [1, 3]: 50% and 2%; Population Fragmented Nuclei (%) [1, 5]: 40% and 1%; Population Tubulin-Different-Phenotype (%) [1, 5]: 25% and 77%; Population Mitochondria Different-Phenotype (%) [1, 6]: 5% and 16%; Population Fragmented Nuclei (%) [1, 7]: 33% and 7%
O=C1Nc2ccc(C(=O)c3ccco3)cc2C1=Cc1cc(Cl)c(O)c(Cl)c1 [GW406108X] | 34 and 231 | – | 16% and 52% | 33 and 188 | – | 47 and 321 | 45 and 264 | 88 and 657 | 53 and 449 | 10% and 48% | Population Mitotic Cells (%) [1, 6]: 12% and 56%
CC(C)N1CCN(Cc2cnc(-c3cc(-c4cccc5[nH]ccc45)cc4[nH]ncc34)o2)CC1 [NEMIRALISIB] | 40 and 304 | – | – | 53 and 202 | – | 44 and 401 | 49 and 221 | 82 and 742 | 66 and 307 | – | Population Mitochondria Different-Phenotype (%) [1, 4]: 6% and 28%
CC(=O)O[C@H]1C(=O)[C@@]2(C)[C@H]([C@H](OC(=O)c3ccccc3)[C@]3(O)C[C@H](OC(=O)[C@H](O)[C@@H](NC(=O)c4ccccc4)c4ccccc4)C(C)=C1C3(C)C)[C@]1(OC(C)=O)CO[C@@H]1C[C@@H]2O [PACLITAXEL] | – | – | – | – | – | – | – | – | – | – | Population Tubulin-Different-Phenotype (%) ([2]; 24 h): 7, 23, 12, 10%; Population Mitotic Cells (%) ([2]; 48 h): 7, 17, 13, 28%
CCN1C(=O)N(c2c(F)c(OC)cc(OC)c2F)Cc2cnc3[nH]c(CN4CCOCC4)cc3c21 [PEMIGATINIB] | 64 and 195 | 25% and 5% | – | 31 and 169 | 45% and 9% | – | 27 and 197 | 136 and 504 | 36 and 261 | – | –
Cl.Clc1ccc2nsnc2c1NC1=NCCN1 [TIZANIDINE HYDROCHLORIDE] | 41 and 298 | – | 0% and 72% | 39 and 265 | 0% and 41% | 62 and 409 | 55 and 356 | – | 86 and 811 | 11% and 61% | Population Apoptotic (%) [1, 4]: 100% and 27%; Population Apoptotic (%) [1, 6]: 0% and 47%; Population Mitotic Cells (%) [1, 6]: 0% and 52%

The source holds more than one record for some entries. The list is limited to them. An entry can have further records. Results that share an entry are repeats (runs, samples, wells, individuals or studies). *1 amine or outer side, *2 acyl side, *3 side chain or, on linkers, in order; H or OH if unused. Where a SMILES comes first, the peptide text is derived from it. Bridges are numbered along the chain shown (N, C = ends). Roman numbers before positions name the chains, in order. [ ]: non-standard residue; d: D form. Hexamethylenediamine = C(CCCN[*:2])CCN[*:1]; Dip = N[C@H](C(=O)O)C(c1ccccc1)c1ccccc1; Chg = N[C@H](C(=O)O)C1CCCCC1; NMeA = CN[C@@H](C)C(=O)O
